The results in this text go back to publication PMC6212790.

This is one part of the list. At the low end of the ranking the order means little.

The assay deals with T1, GST-Rok (full length) (UniProt O34857).
T1 sequence: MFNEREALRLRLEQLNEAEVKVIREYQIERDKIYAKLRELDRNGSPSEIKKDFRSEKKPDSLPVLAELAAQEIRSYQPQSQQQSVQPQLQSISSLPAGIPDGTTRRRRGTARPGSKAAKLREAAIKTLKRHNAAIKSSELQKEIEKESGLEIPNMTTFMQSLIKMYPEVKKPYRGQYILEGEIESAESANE
Briefly: protein binding microarray.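 Note: rank score from −0.5 (least bound) to 0.5 (best bound).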 The following applies: Rok is a gene silencer of Bacillus subtilis; high values mean tight binding; most listed sequences are background and not binding sites; double strand, one strand shown.
For the sequence CAGGTGCG, the binding signal is -0.245 E-score. To ATGTCAAT belongs 0.0933 E-score; to TGGTGAAA, -0.0716 E-score; to CATACTTC, 0.191 E-score.

In the case of CAGTCTCG, the binding signal is -0.101 E-score. To CGCCCGTC belongs -0.333 E-score. To CCCCTGTC belongs -0.332 E-score; to CCGTCTCC, -0.25 E-score; to GGATTGAA, -0.0953 E-score. To TGCCGTAA belongs 0.0324 E-score; to TGAAGACA, -0.0179 E-score; to CGATTTAC, 0.334 E-score. As to CACTATCG, the binding signal is 0.219 E-score.

Consider TACCCATA, for which the binding signal is 0.242 E-score. In the case of AGAGACCA it was -0.0403 E-score. To GGATTCAA belongs -0.157 E-score; to AATTATGC, 0.197 E-score; to CGCAACGC, -0.0361 E-score. In the case of GATGGCGA it was 0.0309 E-score. Turning to GATCGCGC, the binding signal was -0.16 E-score. In turn, AAGTTATT returned a binding signal of 0.228 E-score. To GTGTTATA belongs 0.112 E-score.

Sequence CGGTTCCA yielded a binding signal of 0.0669 E-score. GAAATACC gave a binding signal of 0.175 E-score. Take GAGGGGAA: the binding signal was -0.359 E-score.

In the case of CTTTACTA, the binding signal came to 0.0947 E-score. ATGCATTC registered a binding signal of 0.0203 E-score. In the case of GCTTTAAA it was -0.0771 E-score; in that of CTCATGCC, -0.252 E-score. CAGGGGGC: the binding signal was -0.434 E-score. To ACCCGTAT belongs -0.0515 E-score; to CCGGGACC, -0.441 E-score. AGCCGATA: the binding signal stood at 0.106 E-score.

In the case of CCGAAAGC, the binding signal was -0.171 E-score. ATGATCGC gave a binding signal of 0.123 E-score.

ACATCAGT came in with a binding signal of 0.167 E-score.

Sequence TACGTTAA displayed a binding signal of 0.0468 E-score.

On to TACACGGA, for which the binding signal is -0.0372 E-score.

GGCACCTA displayed a binding signal of 0.0107 E-score. As for AAGACCGG, the binding signal was -0.0634 E-score. To CACTGAAG belongs -0.205 E-score; to CCCACGAC, -0.373 E-score; to AACATTTA, 0.161 E-score. In the case of CTCTACAG it was -0.0694 E-score; in that of AAGAATCT, 0.178 E-score; in that of CCCCAGCC, -0.43 E-score.

The sequence ATTAGCAA returned a binding signal of 0.0548 E-score. To CCTGACGA belongs -0.0533 E-score; to ACCCTCCT, -0.336 E-score. Consider GTCGACCA, for which the binding signal was -0.262 E-score. In the case of AAACGCCG it was -0.286 E-score; in that of AGGCTCTA, 0.0177 E-score; in that of AAGACACG, -0.0199 E-score. To CTTAAAGA belongs -0.152 E-score; to GGCAGTAA, 0.296 E-score. To CGGACCTA belongs -0.16 E-score; to ATACAGTC, 0.0812 E-score; to AGTGTATA, 0.303 E-score. CGCAAATC gave a binding signal of 0.106 E-score. With ACGTTCCT, the binding signal turned out to be 0.0509 E-score. Take ATTTGGAG: the binding signal was -0.164 E-score. On to ACGACTCA, for which the binding signal amounted to 0.0569 E-score. To CAACATAA belongs 0.169 E-score.

Turning to GGCGACAC, the binding signal is -0.133 E-score. To CCGGTCAA belongs -0.0527 E-score; to ATTTCCTC, -0.0381 E-score; to GCGGTAAC, 0.032 E-score. In the case of TTACACAA it was 0.0766 E-score; in that of GTTAGTGA, 0.0739 E-score. To AAGCCAGC belongs -0.00201 E-score; to CAGTACCC, -0.164 E-score; to AAGGTTTA, 0.245 E-score. For the sequence TGCGAGCA, the binding signal was -0.147 E-score.

As to GGGCGATA, the binding signal was -0.215 E-score. To GAGACGCA belongs -0.373 E-score; to ACTGGGAC, -0.302 E-score; to GTTGTAGA, 0.27 E-score. For CTCCGGAC, the binding signal is -0.132 E-score.

In the case of CCCAAGGG, the binding signal is -0.304 E-score. As to GTAGTTTA, the binding signal stood at 0.382 E-score. To AACAACTG belongs 0.0925 E-score; to ATTGGGTG, -0.0963 E-score. On to AGAGTGCT, for which the binding signal is -0.0247 E-score. In the case of CTAGTGCC it was 0.0302 E-score. To GTTGACCA belongs -0.0343 E-score; to ATTCCCTA, 0.104 E-score; to ATGTGCTC, 0.0109 E-score.

As for GCGGCACA, the binding signal was -0.15 E-score. To CAGTCCCA belongs -0.125 E-score; to ATTCGTGA, 0.0968 E-score. In the case of TCTGTTAA it was -0.0252 E-score; in that of ATTCGCTA, 0.135 E-score. In the case of CAAAATAG it was 0.225 E-score; in that of TACGCATA, -0.0665 E-score.

The sequence AGTGATTA showed a binding signal of 0.144 E-score.

AAGGCTAC displayed a binding signal of 0.0185 E-score. In the case of CATATGCA it was 0.117 E-score; in that of GCCGCGGC, -0.315 E-score; in that of AGCTGCAG, -0.0626 E-score. With ATGCGAGC, the binding signal was -0.126 E-score. To CCTCACCG belongs -0.0671 E-score; to GCCCCTGA, -0.341 E-score; to ATTACAAC, 0.286 E-score. To ATGTTAAG belongs 0.0993 E-score. To AATATAAC belongs 0.193 E-score; to AGGTCACC, -0.279 E-score. Regarding GAAGTGAA, the binding signal is -0.111 E-score. In the case of CGCCCACA it was -0.238 E-score; in that of AAGTTGGT, 0.0708 E-score; in that of TATCTTAA, -0.00635 E-score. In the case of CTTTAGCC, the binding signal is -0.184 E-score. CGTGTTAC: the binding signal was determined as 0.0982 E-score.

On to GGGCTCTA, for which the binding signal is 0.0525 E-score. ATCCCGAA: the binding signal is 0.0612 E-score. As for ATTAATCC, the binding signal was 0.232 E-score. Sequence CAGGTCTA gave a binding signal of 0.00167 E-score.

Consider AACGGAGA, for which the binding signal was -0.0536 E-score.

With CACCTAAA, the binding signal was found to be 0.131 E-score. To TTCCGCAA belongs 0.142 E-score; to ACCGTACA, 0.157 E-score. In the case of GGTTTAAA it was 0.0123 E-score; in that of CTCGTTAC, 0.11 E-score. To CCATCAGC belongs -0.247 E-score; to AGCCGTCC, -0.298 E-score; to CAAAGAGA, -0.365 E-score. CACCATAA gave a binding signal of 0.166 E-score.

AGTGCGTA came in with a binding signal of 0.164 E-score. As to TAGAGAAA, the binding signal was found to be 0.223 E-score. In the case of CCTGGGAG, the binding signal was -0.315 E-score. The sequence GGCATTTA returned a binding signal of 0.18 E-score. In the case of AGGGATCG it was -0.337 E-score; in that of AGAAGAGG, -0.171 E-score. Take CCGTTCCG: the binding signal is -0.337 E-score. For CACACGAA, the binding signal came to 0.0616 E-score. With CTAGCATA, the binding signal is 0.201 E-score. To AGTTTAGG belongs 0.0837 E-score; to CGACAAGA, -0.111 E-score; to GTCCCCGA, -0.268 E-score. In the case of GGCAATAA it was 0.168 E-score; in that of CTTATACC, 0.244 E-score. In the case of CCCCCCGC it was -0.442 E-score; in that of TTCTCCAA, 0.114 E-score; in that of ACCGTCGA, 0.0177 E-score. In the case of AACTCCGA, the binding signal is -0.0212 E-score.

GCAATAGA: the binding signal is 0.29 E-score. In the case of ACAATGCA it was 0.0247 E-score; in that of AAGAGGCC, -0.219 E-score; in that of CCTTGTGC, -0.181 E-score. GCCTCTAC: the binding signal is -0.00562 E-score. On to CAATGGAA, for which the binding signal was -0.041 E-score. TAAATCGA: the binding signal came to 0.0795 E-score.

Consider CATCCGGA, for which the binding signal is -0.0956 E-score.

In the case of ACCTTCCA, the binding signal was -0.0109 E-score.

With GAGTGTAA, the binding signal amounted to 0.0681 E-score. In the case of ACCCGCCC it was -0.0941 E-score; in that of ACAGCACG, -0.0535 E-score; in that of CACCTTTA, -0.0478 E-score. On to CTAAGTCC, for which the binding signal is -0.114 E-score.

For CCGGAATC, the binding signal was -0.0159 E-score. For the sequence AATTTCTC, the binding signal came to 0.189 E-score. To AATCGACG belongs -0.112 E-score. As for GGAACCCA, the binding signal is -0.14 E-score. With AATCGGTA, the binding signal was 0.119 E-score. For the sequence CAGACCTG, the binding signal is -0.242 E-score. As for GGGCCAAC, the binding signal was -0.325 E-score. With CCCGGGCC, the binding signal is -0.426 E-score.

As for GATCCAGC, the binding signal was found to be 0.0112 E-score.

Regarding AATACCCC, the binding signal is -0.205 E-score. To CCTGTCTA belongs 0.194 E-score.

Consider CCTCAACC, for which the binding signal was -0.245 E-score. TACTGCAA: the binding signal was 0.104 E-score.

Take AAGCTTCT: the binding signal was determined as 0.0357 E-score.
